# Measurements: the supplement of paper PMC8728848
# The other results are listed elsewhere or left out.
# B1: Gal 8 (Mus musculus), Q9JL15 (protein)
# chain: MGGSHHHHHHGMASMLSLNNLQNIIYNPIIPYVGTITEQLKPGSLIVIRGHVPKDSERFQVDFQLGNSLKPRADVAFHFNPRFKRSSCIVCNTLTQEKWGWEEITYDMPFRKEKSFEIVFMVLKNKFQVAVNGRHVLLYAHRISPEQIDTVGIYGKVNIHSIGFRFSSASALPHTLGDLQSMETSALGLTQINRENIQKPGKLQLSLPFEARLNASMGPGRTVVIKGEVNTNARSFNVDLVAGKTRDIALHLNPRLNVKAFVRNSFLQDAWGEEERNITCFPFSSGMYFEMIIYCDVREFKVAINGVHSLEYKHRFKDLSSIDTLSVDGDIRLLDVRSW
# Legend:
# Test in all cases: glycan array binding signal (z-score within array); higher = stronger binding
# Details in all cases: glycan notation: IUPAC condensed, linker removed
# [1] = biological target: Neu5Ac(a2-6)Gal(b1-4)GlcNAc(b1-2)Man(a1-3)[GlcNAc(b1-4)][Neu5Ac(a2-6)Gal(b1-4)GlcNAc(b1-2)Man(a1-6)]Man(b1-4)GlcNAc(b1-4)GlcNAc
# Summary of the method: (§1)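 Glycan array data came from 3228 arrays in the Consortium for Functional Glycomics database, and only arrays with an available protein sequence were kept. Glycan names were put into IUPAC-condensed notation, and columns mapping to the same glycan were averaged. The binding signal is a within-array Z-score, averaged across arrays of one protein sequence run at different concentrations or buffers and across linkers. A negative Z-score can be read as non-binding.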
# [2] = biological target: Neu5Ac(a2-6)Gal(b1-4)GlcNAc(b1-2)Man(a1-3)[Man(a1-6)]Man(b1-4)GlcNAc(b1-4)GlcNAc
# Summary of the method: as §1
# [3] = biological target: Neu5Ac(a2-6)Gal(b1-4)GlcNAc(b1-2)Man(a1-3)[Neu5Ac(a2-3)Gal(b1-4)GlcNAc(b1-2)Man(a1-6)]Man(b1-4)GlcNAc(b1-4)GlcNAc
# Summary of the method: as §1
# [4] = biological target: Neu5Ac(a2-6)Gal(b1-4)GlcNAc(b1-2)Man(a1-3)[Neu5Ac(a2-6)Gal(b1-4)GlcNAc(b1-2)Man(a1-6)]Man(b1-4)GlcNAc(b1-4)GlcNAc
# Summary of the method: as §1
# [5] = biological target: Neu5Ac(a2-6)Gal(b1-4)GlcNAc(b1-2)Man(a1-3)[Neu5Ac(a2-6)Gal(b1-4)GlcNAc(b1-2)Man(a1-6)]Man(b1-4)GlcNAc(b1-4)[Fuc(a1-6)]GlcNAc
# Summary of the method: as §1
# [6] = biological target: Neu5Ac(a2-6)Gal(b1-4)GlcNAc(b1-2)Man(a1-6)Man(b1-4)GlcNAc(b1-4)GlcNAc
# Summary of the method: as §1
# [7] = biological target: Neu5Ac(a2-6)Gal(b1-4)GlcNAc(b1-2)Man(a1-6)[Gal(b1-4)GlcNAc(b1-2)Man(a1-3)]Man(b1-4)GlcNAc(b1-4)GlcNAc
# Summary of the method: as §1
# [8] = biological target: Neu5Ac(a2-6)Gal(b1-4)GlcNAc(b1-2)Man(a1-6)[GlcNAc(b1-2)Man(a1-3)]Man(b1-4)GlcNAc(b1-4)GlcNAc
# Summary of the method: as §1
# [9] = biological target: Neu5Ac(a2-6)Gal(b1-4)GlcNAc(b1-2)Man(a1-6)[Man(a1-3)]Man(b1-4)GlcNAc(b1-4)GlcNAc
# Summary of the method: as §1
# [10] = biological target: Neu5Ac(a2-6)Gal(b1-4)GlcNAc(b1-2)[Neu5Ac(a2-6)Gal(b1-4)GlcNAc(b1-4)]Man(a1-3)[GlcNAc(b1-4)][Neu5Ac(a2-6)Gal(b1-4)GlcNAc(b1-2)[Neu5Ac(a2-6)Gal(b1-4)GlcNAc(b1-6)]Man(a1-6)]Man(b1-4)GlcNAc(b1-4)GlcNAc
# Summary of the method: as §1
# [11] = biological target: Neu5Ac(a2-6)Gal(b1-4)GlcNAc(b1-2)[Neu5Ac(a2-6)Gal(b1-4)GlcNAc(b1-4)]Man(a1-3)[GlcNAc(b1-4)][Neu5Ac(a2-6)Gal(b1-4)GlcNAc(b1-4)Man(a1-6)]Man(b1-4)GlcNAc(b1-4)GlcNAc
# Summary of the method: as §1
# [12] = biological target: Neu5Ac(a2-6)Gal(b1-4)GlcNAc(b1-2)[Neu5Ac(a2-6)Gal(b1-4)GlcNAc(b1-6)]Man(a1-6)[Neu5Ac(a2-6)Gal(b1-4)GlcNAc(b1-2)Man(a1-3)][GlcNAc(b1-4)]Man(b1-4)GlcNAc(b1-4)GlcNAc
# Summary of the method: as §1
# [13] = biological target: Neu5Ac(a2-6)Gal(b1-4)GlcNAc(b1-3)Gal(b1-3)GlcNAc
# Summary of the method: as §1
# [14] = biological target: Neu5Ac(a2-6)Gal(b1-4)GlcNAc(b1-3)Gal(b1-4)GlcNAc
# Summary of the method: as §1
# [15] = biological target: Neu5Ac(a2-6)Gal(b1-4)GlcNAc(b1-3)Gal(b1-4)GlcNAc(b1-2)Man(a1-3)[Neu5Ac(a2-6)Gal(b1-4)GlcNAc(b1-3)Gal(b1-4)GlcNAc(b1-2)Man(a1-6)]GalNAc
# Summary of the method: as §1
# [16] = biological target: Neu5Ac(a2-6)Gal(b1-4)GlcNAc(b1-3)Gal(b1-4)GlcNAc(b1-3)Gal(b1-4)GlcNAc
# Summary of the method: as §1
# [17] = biological target: Neu5Ac(a2-6)Gal(b1-4)GlcNAc(b1-3)Gal(b1-4)GlcNAc(b1-3)Gal(b1-4)GlcNAc(b1-2)Man(a1-3)[Neu5Ac(a2-6)Gal(b1-4)GlcNAc(b1-3)Gal(b1-4)GlcNAc(b1-3)Gal(b1-4)GlcNAc(b1-2)Man(a1-6)]GalNAc
# Summary of the method: as §1
# [18] = biological target: Neu5Ac(a2-6)Gal(b1-4)GlcNAc(b1-3)Gal(b1-4)GlcNAc(b1-3)GalNAc
# Summary of the method: as §1
# [19] = biological target: Neu5Ac(a2-6)Gal(b1-4)GlcNAc(b1-3)Gal(b1-4)GlcNAc(b1-3)[Neu5Ac(a2-6)Gal(b1-4)GlcNAc(b1-3)Gal(b1-4)GlcNAc(b1-6)]GalNAc
# Summary of the method: as §1
# [20] = biological target: Neu5Ac(a2-6)Gal(b1-4)GlcNAc(b1-3)Gal(b1-4)GlcNAc(b1-6)[Gal(b1-3)]GalNAc
# Summary of the method: as §1
# [21] = biological target: Neu5Ac(a2-6)Gal(b1-4)GlcNAc(b1-3)Gal(b1-4)[Fuc(a1-3)]GlcNAc(b1-3)Gal(b1-4)[Fuc(a1-3)]GlcNAc
# Summary of the method: as §1
# [22] = biological target: Neu5Ac(a2-6)Gal(b1-4)GlcNAc(b1-3)GalNAc
# Summary of the method: as §1
# [23] = biological target: Neu5Ac(a2-6)Gal(b1-4)GlcNAc(b1-3)[Neu5Ac(a2-6)Gal(b1-4)GlcNAc(b1-6)]GalNAc
# Summary of the method: as §1
# [24] = biological target: Neu5Ac(a2-6)Gal(b1-4)GlcNAc(b1-6)GalNAc
# Summary of the method: as §1
# [25] = biological target: Neu5Ac(a2-6)Gal(b1-4)GlcNAc(b1-6)[Gal(b1-3)GlcNAc(b1-3)]Gal(b1-4)Glc
# Summary of the method: as §1
# [26] = biological target: Neu5Ac(a2-6)Gal(b1-4)GlcNAc(b1-6)[Gal(b1-3)]GalNAc
# Summary of the method: as §1
# [27] = biological target: Neu5Ac(a2-6)Gal(b1-4)GlcNAc6S
# Summary of the method: as §1
# Neu5Ac(a2-6)GalNAc = biological target: Neu5Ac(a2-6)GalNAc
# Summary of the method: as §1
# [28] = biological target: Neu5Ac(a2-6)GalNAc(b1-4)GlcNAc
# Summary of the method: as §1
# [29] = biological target: Neu5Ac(a2-6)GalNAc(b1-4)GlcNAc6S
# Summary of the method: as §1
# [30] = biological target: Neu5Ac(a2-6)GlcNAc(b1-4)GlcNAc
# Summary of the method: as §1
binder,measurement,setting,value
B1,glycan array binding signal (z-score),[1],-0.541
same,glycan array binding signal (z-score),[2],-0.525
same,glycan array binding signal (z-score),[3],-0.54
same,glycan array binding signal (z-score),[4],-0.448
same,glycan array binding signal (z-score),[5],-0.514
same,glycan array binding signal (z-score),[6],-0.53
same,glycan array binding signal (z-score),[7],0.013
same,glycan array binding signal (z-score),[8],-0.549
same,glycan array binding signal (z-score),[9],-0.543
same,glycan array binding signal (z-score),[10],-0.602
same,glycan array binding signal (z-score),[11],-0.549
same,glycan array binding signal (z-score),[12],-0.539
same,glycan array binding signal (z-score),[13],0.159
same,glycan array binding signal (z-score),[14],-0.168
same,glycan array binding signal (z-score),[15],0.465
same,glycan array binding signal (z-score),[16],0.078
same,glycan array binding signal (z-score),[17],0.157
same,glycan array binding signal (z-score),[18],-0.1
same,glycan array binding signal (z-score),[19],-0.311
same,glycan array binding signal (z-score),[20],0.11
same,glycan array binding signal (z-score),[21],-0.516
same,glycan array binding signal (z-score),[22],-0.531
same,glycan array binding signal (z-score),[23],-0.533
same,glycan array binding signal (z-score),[24],-0.491
same,glycan array binding signal (z-score),[25],0.161
same,glycan array binding signal (z-score),[26],0.234
same,glycan array binding signal (z-score),[27],-0.549
same,glycan array binding signal (z-score),Neu5Ac(a2-6)GalNAc,-0.536
same,glycan array binding signal (z-score),[28],-0.566
same,glycan array binding signal (z-score),[29],-0.539
same,glycan array binding signal (z-score),[30],-0.555
